Assay results: the supplement of paper PMC3334620
Whole data set: some 33,000 sequences, median “E-score (-0.5 to 0.5)” near -0.053, cut for the highest 2% near 0.37. This is one part of the list.

The sequences below were run against Hap1 (UniProt P0CE41) (assay: PBM E-score (8-mer binding enrichment) (E-score (-0.5 to 0.5)); higher = stronger / more preferred TF binding; most listed sequences are background and not binding sites). Conditions: protein concentration: 200 nM; construct: GST-DNA-binding domain.
Sequence of UniProt P0CE41 (P0CE41 whole entry, the tested form may be a part): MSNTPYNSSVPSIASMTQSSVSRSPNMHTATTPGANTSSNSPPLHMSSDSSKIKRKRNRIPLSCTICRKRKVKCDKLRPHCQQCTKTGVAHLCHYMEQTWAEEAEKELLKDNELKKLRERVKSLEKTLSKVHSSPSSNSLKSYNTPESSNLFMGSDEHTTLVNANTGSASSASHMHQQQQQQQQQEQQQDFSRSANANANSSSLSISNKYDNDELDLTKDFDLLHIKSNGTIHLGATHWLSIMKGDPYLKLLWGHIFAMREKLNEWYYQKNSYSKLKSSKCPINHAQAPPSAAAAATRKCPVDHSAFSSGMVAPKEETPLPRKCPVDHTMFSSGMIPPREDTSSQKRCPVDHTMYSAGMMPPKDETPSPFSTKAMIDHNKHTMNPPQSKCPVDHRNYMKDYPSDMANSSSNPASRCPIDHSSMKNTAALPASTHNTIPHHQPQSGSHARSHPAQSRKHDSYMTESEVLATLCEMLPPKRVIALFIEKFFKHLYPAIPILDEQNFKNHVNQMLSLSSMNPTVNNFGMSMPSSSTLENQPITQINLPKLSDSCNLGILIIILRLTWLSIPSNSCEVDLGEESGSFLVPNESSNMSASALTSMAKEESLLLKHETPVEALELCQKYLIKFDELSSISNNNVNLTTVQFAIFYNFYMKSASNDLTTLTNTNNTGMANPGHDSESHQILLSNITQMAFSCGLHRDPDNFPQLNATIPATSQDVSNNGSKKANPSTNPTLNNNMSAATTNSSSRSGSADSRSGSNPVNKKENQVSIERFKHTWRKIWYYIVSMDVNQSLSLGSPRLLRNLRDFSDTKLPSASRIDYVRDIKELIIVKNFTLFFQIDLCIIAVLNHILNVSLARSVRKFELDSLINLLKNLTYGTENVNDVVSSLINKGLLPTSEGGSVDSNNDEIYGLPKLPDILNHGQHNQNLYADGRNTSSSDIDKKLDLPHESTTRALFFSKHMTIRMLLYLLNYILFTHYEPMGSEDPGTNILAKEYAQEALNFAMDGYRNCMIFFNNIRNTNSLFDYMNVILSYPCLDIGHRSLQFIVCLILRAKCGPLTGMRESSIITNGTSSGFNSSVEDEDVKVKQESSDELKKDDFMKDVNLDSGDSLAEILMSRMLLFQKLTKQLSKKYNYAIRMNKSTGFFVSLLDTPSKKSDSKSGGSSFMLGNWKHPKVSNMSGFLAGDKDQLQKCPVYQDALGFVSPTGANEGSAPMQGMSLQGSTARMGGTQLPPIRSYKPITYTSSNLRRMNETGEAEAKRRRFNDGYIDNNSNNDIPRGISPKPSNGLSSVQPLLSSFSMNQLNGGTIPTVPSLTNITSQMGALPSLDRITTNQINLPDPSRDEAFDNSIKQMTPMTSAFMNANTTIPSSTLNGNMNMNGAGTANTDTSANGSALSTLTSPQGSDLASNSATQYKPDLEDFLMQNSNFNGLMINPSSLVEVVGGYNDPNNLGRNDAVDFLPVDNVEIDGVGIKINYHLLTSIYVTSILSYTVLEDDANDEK
Method: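 Universal 'all 10-mer' protein binding microarrays (Agilent AMADID 015681) probed with GST-tagged S. cerevisiae TFs (full-length or DBD) made by in vitro transcription/translation (PURExpress), about 100-200 nM. Bound TF was detected with fluorescent anti-GST. Each ungapped 8-mer (which stands for itself and its reverse complement) is scored by the PBM enrichment score (E-score), a modified Wilcoxon-Mann-Whitney statistic from -0.5 to +0.5, computed with the Universal PBM Analysis Suite. Scale: above 0.35 generally sequence-specific binding.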
CAAGCTCC was tested, and the “PBM E-score” value was 0.00322.
AACTGTGC was tested, and the “PBM E-score” value was -0.323.
In the case of ACGCCCAA, the “PBM E-score” value is reported as -0.133.
In the case of CGGCTGGA, the “PBM E-score” value is reported as 0.184.
AGTAATAC was tested, and the “PBM E-score” value was 0.0132.
With AAAGTAAC the “PBM E-score” value was -0.0512.
ACCTCTAG was tested, and the “PBM E-score” value was -0.09.
AGTGAATA was tested, and the “PBM E-score” value was -0.169.
In the case of GGCGCAAC, the “PBM E-score” value is reported as 0.0767.
With AGGCGCCC the “PBM E-score” value was -0.0775.
In the case of CGACAGTA, the “PBM E-score” value is reported as 0.119.
In the case of AACACACC, the “PBM E-score” value is reported as 0.0322.
For ATATTGCC, the “PBM E-score” value was 0.0438.
ACAAAGTA was tested, and the “PBM E-score” value was -0.153.
In the case of AGTACATC, the “PBM E-score” value is reported as -0.075.
AAACACTA was tested, and the “PBM E-score” value was -0.192.
With GTATACCA the “PBM E-score” value was -0.165.
With AAAAGGGA the “PBM E-score” value was -0.261.
In the case of GACGCGTC, the “PBM E-score” value is reported as -0.2.
In the case of CGGCTAAA, the “PBM E-score” value is reported as 0.254.
For AAAAAGAT, the “PBM E-score” value was -0.174.
In the case of CTCCCCGC, the “PBM E-score” value is reported as 0.204.
In the case of AGGAAGTA, the “PBM E-score” value is reported as 0.0541.
In the case of AACATGCG, the “PBM E-score” value is reported as -0.138.
For CCTAACGA, the “PBM E-score” value was -0.222.
For ACTAGAAG, the “PBM E-score” value was -0.0436.
For GTTCCGTA, the “PBM E-score” value was 0.255.
For AGGATGCG, the “PBM E-score” value was -0.181.
In the case of AGTTTTAC, the “PBM E-score” value is reported as -0.0465.
For CTTGACCA, the “PBM E-score” value was -0.35.
With CGCGTTGC the “PBM E-score” value was 0.159.
With ATGGCACC the “PBM E-score” value was -0.0283.
CGGGTGCC was tested, and the “PBM E-score” value was 0.227.
For TGTTTGAA, the “PBM E-score” value was -0.202.
With AGAATTCG the “PBM E-score” value was -0.0961.
For GGGGGTCA, the “PBM E-score” value was -0.0392.
With ACGTGGTG the “PBM E-score” value was -0.01.
For GGCCCCGA, the “PBM E-score” value was 0.21.
For GAACCAGA, the “PBM E-score” value was -0.206.
AGATAGAG was tested, and the “PBM E-score” value was -0.0872.
For CAAGTTCC, the “PBM E-score” value was 0.124.
ACGCATCA was tested, and the “PBM E-score” value was -0.125.
With CAGTTGAA the “PBM E-score” value was -0.212.
ACTGTAAC was tested, and the “PBM E-score” value was -0.139.
AAGTAGCG was tested, and the “PBM E-score” value was -0.129.
For CGGTCAAG, the “PBM E-score” value was 0.238.
GTAAGAGA was tested, and the “PBM E-score” value was -0.197.
CTGGGTTC was tested, and the “PBM E-score” value was -0.0233.
With AGGAGACA the “PBM E-score” value was -0.119.
In the case of ACCTTTAT, the “PBM E-score” value is reported as -0.16.
In the case of GCGTACCC, the “PBM E-score” value is reported as 0.0225.
CAATTCGC was tested, and the “PBM E-score” value was 0.14.
For GCATCGGC, the “PBM E-score” value was 0.225.
In the case of GGCGGAGA, the “PBM E-score” value is reported as 0.36.
For GTCTAAGA, the “PBM E-score” value was -0.105.
For GTAGGTTA, the “PBM E-score” value was -0.0501.
GTAATGAC was tested, and the “PBM E-score” value was 0.0337.
With GTTTTACA the “PBM E-score” value was -0.149.
In the case of CTCTATTC, the “PBM E-score” value is reported as -0.0238.
In the case of ATCCACGC, the “PBM E-score” value is reported as -0.239.
With CACTGCGA the “PBM E-score” value was -0.0992.
For ACGTGCTA, the “PBM E-score” value was -0.249.
In the case of CTTCTCAA, the “PBM E-score” value is reported as -0.141.
In the case of CTCGCCGC, the “PBM E-score” value is reported as 0.146.
For CGTAGAGA, the “PBM E-score” value was -0.291.
For AACCCGAG, the “PBM E-score” value was 0.317.
CGATATAC was tested, and the “PBM E-score” value was 0.332.
With GGTCCCTA the “PBM E-score” value was -0.119.
With ACCGGAGA the “PBM E-score” value was 0.43.
In the case of GCCCTCAA, the “PBM E-score” value is reported as -0.0889.
CTGTCGTA was tested, and the “PBM E-score” value was -0.0531.
For CGCGTTGA, the “PBM E-score” value was -0.0929.
For CCGAAGAC, the “PBM E-score” value was 0.255.
With CTCTAGCC the “PBM E-score” value was -0.0745.
With ATCCAGGC the “PBM E-score” value was -0.185.
With GGAAGCCC the “PBM E-score” value was 0.157.
ATGATCAG was tested, and the “PBM E-score” value was -0.23.
GAGTATCA was tested, and the “PBM E-score” value was -0.106.
In the case of TCGCATCA, the “PBM E-score” value is reported as 0.162.
CAGTAGTA was tested, and the “PBM E-score” value was -0.161.
ACCACCAA was tested, and the “PBM E-score” value was -0.0355.
In the case of ATGTGAAA, the “PBM E-score” value is reported as -0.1.
With AAGTGCTC the “PBM E-score” value was -0.152.
In the case of CTCAGTGA, the “PBM E-score” value is reported as -0.355.
In the case of GCTGTAGA, the “PBM E-score” value is reported as -0.08.
ACAATTCT was tested, and the “PBM E-score” value was -0.199.
With CTAACAGC the “PBM E-score” value was 0.0711.
In the case of TCGTCCCA, the “PBM E-score” value is reported as -0.0952.
With ATAGCCGA the “PBM E-score” value was 0.372.
With AACGCAGT the “PBM E-score” value was -0.0799.
ATTTGTAA was tested, and the “PBM E-score” value was -0.162.
With CAGCCCTA the “PBM E-score” value was -0.0376.
In the case of AATATATA, the “PBM E-score” value is reported as 0.134.
GGGTTCAC was tested, and the “PBM E-score” value was 0.0978.
For GAGTATCC, the “PBM E-score” value was 0.0516.
With ATGCTGTA the “PBM E-score” value was -0.121.
CATAGACC was tested, and the “PBM E-score” value was 0.0268.
For GGGATCTA, the “PBM E-score” value was 0.134.
For AGTAATGG, the “PBM E-score” value was -0.145.
For ATGGTTGG, the “PBM E-score” value was 0.027.
For AGGACCCG, the “PBM E-score” value was 0.218.
ATTTCGTG was tested, and the “PBM E-score” value was -0.128.
With GAACCTTA the “PBM E-score” value was 0.155.
For CTTCTACA, the “PBM E-score” value was -0.154.
CGCCAACA was tested, and the “PBM E-score” value was 0.00082.
For CTTGTAAA, the “PBM E-score” value was -0.0806.
In the case of GCAGGGAA, the “PBM E-score” value is reported as -0.0498.
AAAACCGT was tested, and the “PBM E-score” value was 0.16.
In the case of AGCTTCCT, the “PBM E-score” value is reported as -0.105.
AATCGGAA was tested, and the “PBM E-score” value was 0.364.
For GGGGAGGA, the “PBM E-score” value was 0.093.
GTACCATA was tested, and the “PBM E-score” value was -0.15.
For AGAGGTTG, the “PBM E-score” value was -0.271.
With AAATAGAC the “PBM E-score” value was -0.0583.
With CGTACGTC the “PBM E-score” value was -0.147.
With ATAAAGCG the “PBM E-score” value was 0.0758.
In the case of AGTTCGCG, the “PBM E-score” value is reported as 0.0958.
With AAGCAACA the “PBM E-score” value was -0.218.
For CAGGGTGC, the “PBM E-score” value was -0.22.
CCGTCCGC was tested, and the “PBM E-score” value was 0.231.
With GATGAGAA the “PBM E-score” value was -0.198.
In the case of AACAGAGG, the “PBM E-score” value is reported as -0.154.
With ACTCACAC the “PBM E-score” value was -0.0538.
With GTCCAAAC the “PBM E-score” value was -0.191.
With CCAGGACA the “PBM E-score” value was -0.0915.
With TATGTTGA the “PBM E-score” value was -0.119.
In the case of GACGTCCA, the “PBM E-score” value is reported as -0.107.
In the case of ACGCAATA, the “PBM E-score” value is reported as 0.12.
With GATGGTCC the “PBM E-score” value was 0.0894.
With GCTCGAAC the “PBM E-score” value was -0.0749.
In the case of AGTCAAGG, the “PBM E-score” value is reported as -0.234.
ACACTTAC was tested, and the “PBM E-score” value was -0.163.
In the case of GGCTCCAC, the “PBM E-score” value is reported as -0.155.
For GCGAGGAA, the “PBM E-score” value was 0.0678.
For ATCCGCAT, the “PBM E-score” value was 0.289.
With CTAGAACC the “PBM E-score” value was -0.132.
GGGCCGAA was tested, and the “PBM E-score” value was 0.311.
AAACTTGT was tested, and the “PBM E-score” value was -0.122.
CGATCTCA was tested, and the “PBM E-score” value was -0.0152.
In the case of CCCCGAGG, the “PBM E-score” value is reported as 0.364.
In the case of CGGTTAGA, the “PBM E-score” value is reported as 0.193.
In the case of CATGAAGC, the “PBM E-score” value is reported as 0.107.
In the case of AACGCCCG, the “PBM E-score” value is reported as 0.27.
ACGTTCTG was tested, and the “PBM E-score” value was -0.0544.
ACATTGCA was tested, and the “PBM E-score” value was -0.123.
CATTCCAG was tested, and the “PBM E-score” value was -0.25.
GGAACCCA was tested, and the “PBM E-score” value was 0.0578.
For AGTGTGGC, the “PBM E-score” value was 0.0217.
For ATGTGGCC, the “PBM E-score” value was 0.082.
With CTAACCGA the “PBM E-score” value was 0.176.
CTCTCTGA was tested, and the “PBM E-score” value was -0.269.
With CATTGTTA the “PBM E-score” value was -0.159.
With CCTTCGCG the “PBM E-score” value was 0.0859.
CGCATGGA was tested, and the “PBM E-score” value was -0.063.
In the case of CATTATGG, the “PBM E-score” value is reported as 0.0179.
In the case of ATCTTGTC, the “PBM E-score” value is reported as 0.0305.
In the case of GACTGGCA, the “PBM E-score” value is reported as -0.149.
In the case of AGCAATCG, the “PBM E-score” value is reported as -0.197.
For CAATTGGG, the “PBM E-score” value was -0.17.
AGGATTGA was tested, and the “PBM E-score” value was -0.0926.
For CTGGGCGC, the “PBM E-score” value was -0.136.
In the case of ACCCAATC, the “PBM E-score” value is reported as 0.089.
For AGAACCAA, the “PBM E-score” value was -0.265.
For ATGGCCGG, the “PBM E-score” value was 0.315.
For CCCGCTCA, the “PBM E-score” value was 0.0705.
For AGAAGGAG, the “PBM E-score” value was -0.248.
GAGTGATA was tested, and the “PBM E-score” value was -0.162.
In the case of AACGCCAA, the “PBM E-score” value is reported as 0.0354.
For CGGCAACC, the “PBM E-score” value was 0.179.
For AGGGAAAT, the “PBM E-score” value was -0.0971.
ACTACTTC was tested, and the “PBM E-score” value was 0.142.
For CAGTCTAC, the “PBM E-score” value was -0.135.
